Over roughly 16,000 sequences, “Z-score” has its median near -0.37; the highest 2% begin near 3.2. The list shows a part of the results.
System: RBM10 RRM1-ZnF (GST-tagged construct)
Assay: RNAcompete 7-mer binding Z-score; higher = stronger binding preference
Summary of the method: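 In 1 ml Hepes pH 7.8 buffer with KCl, NaCl, glycerol, DTT, BSA and glutathione Sepharose beads, GST-tagged RBM10 constructs (20 pmol) were incubated for 30 min at 4°C with 1.5 nmol of a designed pool of 241 399 RNAs up to 41 nt. Four 2-min washes at 4°C followed, and bound RNA was detected by microarray hybridisation. Heptamer motif enrichment was expressed as a one-sided Z-score across probes containing each motif.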

First: UUGUGGG
Second: ACAAUUA
The “RNAcompete 7-mer binding Z-score” value of the first is higher: 2.83 for the first, -0.428 for the second.

Compared with UUCGCUU, GCCCUCU is higher in “RNAcompete 7-mer binding Z-score” value: -0.883 for the first, -0.724 for the second.

First: CCACAUA
Second: CGCUUUG
The “RNAcompete 7-mer binding Z-score” value of the first is lower: -0.805 for the first, -0.701 for the second.

Going from AUAGGUC to UUUCCAC, the “RNAcompete 7-mer binding Z-score” value falls from 0.199 to -0.73.

First: CAGUCCG
Second: AGGAUUU
The “RNAcompete 7-mer binding Z-score” value of the first is lower: -0.75 for the first, 0.118 for the second.

First: AAACACC
Second: UUACGUU
The “RNAcompete 7-mer binding Z-score” value of the first is higher: -0.6 for the first, -0.766 for the second.

Compared with ACGGAAG, GGUGCAG is higher in “RNAcompete 7-mer binding Z-score” value: 1.69 for the first, 2.42 for the second.

First: ACAGUUA
Second: AGUCGGG
The “RNAcompete 7-mer binding Z-score” value of the first is lower: -0.298 for the first, 1.43 for the second.

Compared with ACUGACU, GGUGUAG is higher in “RNAcompete 7-mer binding Z-score” value: -0.457 for the first, 2.85 for the second.

First: UUGGGUU
Second: ACAGCUC
The “RNAcompete 7-mer binding Z-score” value of the first is higher: 2.66 for the first, -0.753 for the second.

First: AGUCUUU
Second: CAAUAAA
The “RNAcompete 7-mer binding Z-score” value of the first is lower: -0.798 for the first, -0.649 for the second.

First: CUUACAU
Second: AGCCCCU
The “RNAcompete 7-mer binding Z-score” value of the first is lower: -0.805 for the first, -0.483 for the second.

First: UCAAGGC
Second: ACUUGUU
The “RNAcompete 7-mer binding Z-score” value of the first is higher: -0.0772 for the first, -0.698 for the second.

Compared with UCCUGGC, GAAGUCU is higher in “RNAcompete 7-mer binding Z-score” value: -0.594 for the first, -0.503 for the second.

Going from CAGAGGG to CAGAUGU, the “RNAcompete 7-mer binding Z-score” value falls from 2.22 to -0.0609.

First: AUAACCG
Second: CUUUUGG
The “RNAcompete 7-mer binding Z-score” value of the first is lower: -0.639 for the first, -0.311 for the second.

Compared with CGGUGGA, ACGGGCA is lower in “RNAcompete 7-mer binding Z-score” value: 2.43 for the first, 1.68 for the second.

First: GGCCGAA
Second: UCUAUUU
The “RNAcompete 7-mer binding Z-score” value of the first is higher: -0.223 for the first, -0.854 for the second.

Going from GUCGAUU to AACACGG, the “RNAcompete 7-mer binding Z-score” value rises from -0.269 to 0.274.

Going from CGUGUAG to CCUUUGU, the “RNAcompete 7-mer binding Z-score” value falls from 0.322 to -0.948.

Going from UCCGGUG to GCGCCCC, the “RNAcompete 7-mer binding Z-score” value falls from -0.0804 to -0.0934.

Going from GACUUAC to CGAUUUA, the “RNAcompete 7-mer binding Z-score” value rises from -0.727 to -0.574.

First: AUGUAUC
Second: CUGCCAU
The “RNAcompete 7-mer binding Z-score” value of the first is higher: -0.444 for the first, -0.847 for the second.

Compared with GGCGUAC, CACCUGA is lower in “RNAcompete 7-mer binding Z-score” value: 0.426 for the first, -0.698 for the second.

First: UAGAGUA
Second: UGUGAUU
The “RNAcompete 7-mer binding Z-score” value of the first is higher: 0.677 for the first, -0.376 for the second.

Compared with ACCCGUG, AUGGUCU is higher in “RNAcompete 7-mer binding Z-score” value: -0.438 for the first, -0.165 for the second.

Compared with UCCUCUA, GGGGGGU is higher in “RNAcompete 7-mer binding Z-score” value: -0.756 for the first, 3.81 for the second.

First: UGCUGGC
Second: CUGGCUC
The “RNAcompete 7-mer binding Z-score” value of the first is higher: -0.0674 for the first, -0.5 for the second.

Going from GAUCAGU to GGCCUCU, the “RNAcompete 7-mer binding Z-score” value falls from -0.0414 to -0.694.

First: GUUCAGA
Second: ACUCCCA
The “RNAcompete 7-mer binding Z-score” value of the first is higher: -0.246 for the first, -0.821 for the second.

Going from AAUCGGC to AAUUCAC, the “RNAcompete 7-mer binding Z-score” value falls from -0.331 to -0.737.

First: ACUUACC
Second: UAAUCCC
The “RNAcompete 7-mer binding Z-score” value of the first is higher: -0.733 for the first, -0.841 for the second.

Compared with CGGAUUU, AUCGUAA is lower in “RNAcompete 7-mer binding Z-score” value: -0.282 for the first, -0.571 for the second.

First: GUUUCGC
Second: CAUCCAG
The “RNAcompete 7-mer binding Z-score” value of the first is higher: -0.35 for the first, -0.694 for the second.

Going from CCGUCCU to AGUACGA, the “RNAcompete 7-mer binding Z-score” value rises from -0.828 to -0.022.

Compared with AGUCCAU, AGUUCGA is higher in “RNAcompete 7-mer binding Z-score” value: -0.672 for the first, -0.558 for the second.

Going from CAUCGCU to UUACCAU, the “RNAcompete 7-mer binding Z-score” value rises from -0.818 to -0.668.

First: UAGCGAA
Second: GCAGCAG
The “RNAcompete 7-mer binding Z-score” value of the first is lower: -0.0707 for the first, 0.618 for the second.

First: CAGCGCU
Second: AUUAGGA
The “RNAcompete 7-mer binding Z-score” value of the first is lower: -0.441 for the first, 2.2 for the second.

Compared with UCACUCC, CACCUCC is higher in “RNAcompete 7-mer binding Z-score” value: -0.724 for the first, -0.6 for the second.

First: AAUAUCA
Second: CAAAUUU
The “RNAcompete 7-mer binding Z-score” value of the first is higher: -0.428 for the first, -0.681 for the second.

Going from UCGGGAU to GGGCGAU, the “RNAcompete 7-mer binding Z-score” value rises from 1.23 to 1.4.

Going from ACUAUGC to CGUUCCA, the “RNAcompete 7-mer binding Z-score” value falls from -0.626 to -0.789.

First: CCAGUUA
Second: CACCGAA
The “RNAcompete 7-mer binding Z-score” value of the first is lower: -0.636 for the first, -0.604 for the second.

Going from AGCGGCA to UUGGCUU, the “RNAcompete 7-mer binding Z-score” value falls from 0.631 to -0.467.

Going from CGUACAC to GGGAUAG, the “RNAcompete 7-mer binding Z-score” value rises from -0.483 to 4.

First: UUCGUAC
Second: GCUAAUA
The “RNAcompete 7-mer binding Z-score” value of the first is lower: -0.694 for the first, -0.396 for the second.

Going from AACAUCU to ACCCUGC, the “RNAcompete 7-mer binding Z-score” value rises from -0.756 to -0.629.

First: UUCCUGG
Second: AAGUCGG
The “RNAcompete 7-mer binding Z-score” value of the first is lower: -0.513 for the first, 0.8 for the second.

Compared with AGCAACG, GGAGUCU is higher in “RNAcompete 7-mer binding Z-score” value: 0.0365 for the first, 0.16 for the second.

Source: the supplement of paper PMC5499739
